# According to the supplement of paper PMC4166925:
# ± gives the standard deviation of the averaged measurements. In all, about 33,000 sequences were measured (“E-score (dimensionless, -0.5 to 0.5)”: median about -0.049, highest 2% from about 0.37 on). Some of the results follow.
# Test system: T1, PmTbr T-box DNA-binding domain (GST fusion)
# T1 sequence: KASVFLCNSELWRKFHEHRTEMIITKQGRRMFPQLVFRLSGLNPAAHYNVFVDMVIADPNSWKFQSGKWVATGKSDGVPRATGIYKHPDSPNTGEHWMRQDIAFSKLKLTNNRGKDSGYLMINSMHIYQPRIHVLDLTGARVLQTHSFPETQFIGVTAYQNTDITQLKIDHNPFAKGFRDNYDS
# Assay: PBM E-score of 8-mer (E-score (dimensionless, -0.5 to 0.5)); Tbr is Tbrain of the sea star Patiria miniata (Pm) or the sea urchin Strongylocentrotus purpuratus (Sp); higher = stronger binding preference; most listed sequences are background and not binding sites
# Settings: the construct has about 5 more residues each side
# Procedure: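 Universal protein-binding microarray (Agilent AMADID 016060, 60-bp probes with a 35-bp variable region) incubated with 200 nM GST-fused Patiria miniata Tbr T-box DNA-binding domain (residues 272-466) in PBS pH 7.5. Scored for every ungapped 8-mer (given with its reverse complement) by the Universal PBM Analysis Suite as E-score (modified Wilcoxon-Mann-Whitney enrichment, range -0.5 to 0.5; >0.45 counts as bound) and Z-score of median probe intensity. Two replicate arrays (datasets 1 and 2).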
# 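Further: 200 nM protein in PBS on universal arrays averaged over duplicate arrays.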
row,Sequence,PBM E-score of 8-mer
1,AAACCCAA,-0.201 ± 0.03
2,CAATCACA,0.243 ± 0.019
3,AACAATCA,0.0205 ± 0.068
4,ATCATAGG,-0.1514 ± 0.001
5,AAAATCAT,-0.0916 ± 0.1
6,ATGTCCTG,-0.103 ± 0.018
7,AATGGAGT,-0.152 ± 0.042
8,ACCTAGCT,-0.0903 ± 0.033
9,AGGTCTTC,-0.185 ± 0.0046
10,GATCTTTA,-0.108 ± 0.044
11,ATTGGATG,-0.0439 ± 0.0095
12,GACCACCA,-0.142 ± 0.031
13,AATTTCTA,-0.071 ± 0.1
14,GTGCCCCA,-0.154 ± 0.084
15,AAACCCGG,-0.207 ± 0.0074
16,TCAGACAA,-0.258 ± 0.034
17,GGGCGATA,0.167 ± 0.011
18,CAGATAAA,-0.0747 ± 0.024
19,CGGTCTGA,-0.158 ± 0.046
20,AATATCGG,-0.0365 ± 0.031
21,GTTGCCAA,0.171 ± 0.056
22,AATCGCAG,0.0445 ± 0.062
23,AGAAATGC,-0.0326 ± 0.03
24,ACTATTAA,-0.0176 ± 0.062
25,ATTCTGGA,-0.285 ± 0.012

row,Sequence,PBM E-score of 8-mer
1,CGAGGAAC,-0.0145 ± 0.025
2,AAGCAGCA,-0.0765 ± 0.018
3,ATTAGTCA,-0.056 ± 0.03
4,GGCCATTA,-0.224 ± 0.046
5,CAGTTGGC,0.0254 ± 0.023
6,ACGCGATA,0.294 ± 0.014
7,CACATACG,0.237 ± 0.022
8,CGTGTACC,-0.204 ± 0.043
9,AGGCTAAA,-0.233 ± 0.034
10,CACCGTTA,0.309 ± 0.019
11,AAGGATCC,-0.293 ± 0.026
12,AATGATTA,-0.0264 ± 0.018
13,GGCGACAC,0.402 ± 0.019
14,CGTCTCGA,-0.176 ± 0.0097
15,CCGGCAAG,-0.0275 ± 0.11
16,GTCTATGA,-0.121 ± 0.03
17,AAATATTG,0.189 ± 0.029
18,AGTTCATC,-0.0165 ± 0.043
19,GGCGGGTA,0.0302 ± 0.051
20,AAGGATGT,-0.108 ± 0.018
21,CAAAACAA,-0.0449 ± 0.052
22,GACATTCC,-0.191 ± 0.021
23,AGGCGCTA,0.4421 ± 0.0025
24,CCGCCCAC,-0.0943 ± 0.055
25,CACTCATG,0.0878 ± 0.012

row,Sequence,PBM E-score of 8-mer
1,ACGCACAG,-0.11 ± 0.006
2,CTTGCACC,0.343 ± 0.012
3,CGAGGATC,-0.00896 ± 0.1
4,AAGGGCTA,-0.307 ± 0.0073
5,GGGTGACC,-0.0479 ± 0.082
6,CCTGGGAG,0.11 ± 0.046
7,AACGTTAC,-0.102 ± 0.0068
8,AACTATAC,-0.0393 ± 0.082
9,GCGATGCA,-0.0782 ± 0.0088
10,GAAGATCA,-0.146 ± 0.007
11,ACCGACAT,0.0334 ± 0.031
12,GTCGCGAA,0.33 ± 0.02
13,ACCAAACC,0.136 ± 0.045
14,CGAACAGA,0.0159 ± 0.086
15,CCAGGCTC,-0.207 ± 0.065
16,GCCAGGTA,0.0701 ± 0.021
17,AAGATCAC,0.106 ± 0.077
18,TATCCGAA,-0.229 ± 0.026
19,CCGGGTTC,-0.107 ± 0.0024
20,GAGAGCCA,-0.172 ± 0.048
21,CGCGCTTA,0.237 ± 0.044
22,CATTTACA,0.176 ± 0.0018
23,CTAGTTTA,-0.0628 ± 0.029
24,AGGACGAG,-0.106 ± 0.051
25,ACTCATAT,-0.0236 ± 0.097

row,Sequence,PBM E-score of 8-mer
1,AAAGTGGA,-0.118 ± 0.1
2,GAGAGGCC,-0.144 ± 0.022
3,AATTGTGT,0.157 ± 0.039
4,GGTTGATA,0.00831 ± 0.004
5,ACTTGACG,0.235 ± 0.021
6,CTTTGCGA,0.0629 ± 0.022
7,AAGGCCTA,-0.161 ± 0.014
8,ACCCTCTG,0.0892 ± 0.023
9,CGTGTTAG,0.354 ± 0.01
10,GAAAGGTC,-0.0952 ± 0.11
11,GCATGTTA,-0.0286 ± 0.048
12,ACGACGTA,-0.109 ± 0.034
13,ATACGGTG,-0.0337 ± 0.0096
14,AACTACCT,-0.139 ± 0.063
15,GCGCAACA,0.13 ± 0.11
16,CCGGTAAC,0.12 ± 0.022
17,ATCAACAA,0.157 ± 0.079
18,ACGATGCC,-0.1362 ± 0.00064
19,CTAAAGCC,-0.136 ± 0.065
20,ATAAGTTG,-0.0956 ± 0.053
21,AGGAAGTG,0.253 ± 0.07
22,GTACGTGA,0.203 ± 0.028
23,ATGAAATG,-0.258 ± 0.021
24,GGCTGAAC,-0.299 ± 0.02
25,GCGTCTTA,-0.1318 ± 0.001

row,Sequence,PBM E-score of 8-mer
1,CCGACACC,0.448 ± 0.018
2,CCCATTTC,-0.0847 ± 0.023
3,GTGCGCTA,0.0331 ± 0.028
4,AAATAGCT,-0.125 ± 0.053
5,CTGTTCAA,-0.156 ± 0.043
6,CACGCTTC,0.328 ± 0.029
7,CTATCATA,0.00848 ± 0.019
8,AAACGACT,0.0244 ± 0.058
9,TATTTTGA,0.0192 ± 0.11
10,CAGCATCA,-0.203 ± 0.045
11,GCCATTTA,0.0118 ± 0.017
12,ATGGGAAT,-0.0796 ± 0.03
13,GCATGCCA,-0.0745 ± 0.048
14,CAAAGGCA,-0.14 ± 0.083
15,TCGTCCAA,-0.214 ± 0.045
16,ACTATACT,0.0322 ± 0.061
17,TTCCCCAA,-0.16 ± 0.061
18,CAAGTTAA,-0.0866 ± 0.0029
19,CGGTACCC,-0.0439 ± 0.073
20,CCCAGCAG,-0.119 ± 0.19
21,AACTGGCA,0.28 ± 0.015
22,CCGCATGC,-0.18 ± 0.076
23,AACTCAAT,-0.307 ± 0.008
24,GCGAATAC,0.241 ± 0.047
25,AACAATGG,-0.109 ± 0.041

row,Sequence,PBM E-score of 8-mer
1,TAGACAAA,-0.108 ± 0.12
2,CCAGGCCA,-0.268 ± 0.0065
3,AATGTTCG,-0.0504 ± 0.044
4,CCGTCCCC,-0.219 ± 0.076
5,ATCTCTAG,0.046 ± 0.033
6,ATACTTTA,-0.124 ± 0.062
7,CTGCATAC,-0.134 ± 0.028
8,CCATAAGG,-0.138 ± 0.019
9,TAAGGTCA,-0.195 ± 0.021
10,AATCGGCG,0.028 ± 0.075
11,ACGTCGCT,0.0255 ± 0.013
12,CACTGCAA,0.0729 ± 0.029
13,GGTTCCAC,0.103 ± 0.021
14,CGCCCGGA,-0.127 ± 0.049
15,AGTTTCCG,-0.107 ± 0.02
16,CAGTCTAG,-0.133 ± 0.011
17,ATTGGGCA,-0.311 ± 0.014
18,ACGGCCCA,-0.197 ± 0.036
19,ATCGCTGG,-0.0392 ± 0.02
20,CTAGGTCA,0.00648 ± 0.021
21,ACGTAGAA,-0.223 ± 0.063
22,TGAATCAA,-0.241 ± 0.0044
23,ATCATCTC,-0.104 ± 0.073
24,AAACACCA,0.268 ± 0.0077
25,GTTCAACA,-0.048 ± 0.021

row,Sequence,PBM E-score of 8-mer
1,ATTCCACA,0.11 ± 0.0066
2,AAAGTCTA,-0.194 ± 0.011
3,GAGAACAA,0.0736 ± 0.061
4,ACTGACGC,0.219 ± 0.029
5,CACCTTCC,0.4461 ± 0.0012
6,CCCATCAA,-0.239 ± 0.024
7,TGCTGCCA,0.0599 ± 0.065
8,GTATAGGA,-0.115 ± 0.049
9,AAGTTCCC,-0.242 ± 0.07
10,GCCCCAGC,-0.0938 ± 0.063
11,AGGACTTG,-0.152 ± 0.021
12,GCGAAGGA,0.112 ± 0.0096
13,ACGAGCGT,0.00364 ± 0.009
14,CGTCTGGA,-0.00957 ± 0.025
15,AGCCATGC,-0.221 ± 0.073
16,AACTTAGA,-0.157 ± 0.055
17,AGATGGGG,-0.0747 ± 0.079
18,GGATCCTA,-0.185 ± 0.057
19,AAATAGCA,0.245 ± 0.039
20,GACATTGA,-0.0426 ± 0.12
21,CCATCCAG,-0.00603 ± 0.045
22,CTCGCGGA,0.0973 ± 0.028
